# Assay results reported in PMC12040169 (PLOS Biology, 2025).
# This is one part of the list.
# System: T1, C. trachomatis L2/434/Bu expressing GFP (CTL2-GFP)
# T1 construct: L2/434/Bu GFP intracellular growth in HeLa cells
# Set-up: species or system HeLa; C. trachomatis total inclusion area by high-content imaging, normalised to DMSO
# Details: total inclusion area; 28.5 h, 10 µM; inhibitor
# How it was run: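 High-content imaging followed the bulk GFP/resorufin measurement: fixed, Hoechst-stained cells were scored for GFP inclusions and host nuclei per well. Total inclusion area and count served as growth proxies, nuclei number as the viability proxy. MIC calculation matched the bulk assay.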
row,Compound,% of control remaining
1,O=C(NCc1cccc(C(F)(F)F)c1)N1CCCCC1CO (stereo not shown) [CBK156165],98.2576
2,COc1ccc(OCCNC(=O)c2cc(-c3cccnc3)cnc2N2CCOCC2)cc1 [CBK076341],101.74
3,CC1(C)CC(NC(=O)CN2CCCCC2)CC(C)(C)N1 [CBK261956],102.107
4,CCCN1CCC(N(C)CCN(CC)CC)CC1 [CBK261935],96.4927
5,COc1ccc([C@@]23CC[C@@H](NC(=O)Nc4ccc(Cl)cc4Cl)C[C@@H]2CN(C)C3)cc1OC [CBK085798T],75.8301
6,CCC(CC)NS(=O)(=O)c1cccc(C(=O)O)c1 [CBK287225],101.122
7,O=C(CN1C(=O)/C(=C/c2ccccc2)SC1=S)Nc1cccc(C(=O)O)c1 [CBK262171],89.8164
8,NC(=O)C1(Cc2ccccc2-c2ccccc2)CCN(C(=O)Cc2ccccc2)CC1 [CBK285909],116.256
9,COC(=O)c1cc(C#N)c(=O)n(CC(=O)N(C)Cc2ccsc2)c1 [CBK297788],104.588
10,Cc1cc(CNC(=O)/C=C/c2ccc(C(C)C)cc2)no1 [CBK149614],75.6566
11,CC(=O)NC(c1ccccn1)C1CCCN(C(=O)C(C)C)C1 (stereo not shown) [CBK285030],89.5644
12,CC(C)(C)c1cc(C(=O)NCC(=O)NCC(=O)O)cc(C(C)(C)C)c1 [CBK262200],89.9714
13,OC/C=C/c1cnc2ccccc2c1 [CBK001749],95.4622
14,O=C(O)CCCOc1nc(C2CC2)cc(C(F)(F)F)n1 [CBK286886],91.8467
15,Nc1ncnc2c1nc1n2[C@H]2C[C@@H](O)[C@@H](C1)O2 [CBK201254],96.5455
16,CC(O)CNCc1ccccc1OCc1ccccc1F (stereo not shown) [CBK270278C],87.0165
17,COCCNc1cc(-c2ccccc2N(C)C)ncn1 [CBK090790],110.806
18,COc1ccc(C2CC(=O)c3c(C)n[nH]c3C2)cc1 (stereo not shown) [CBK287911],74.3289
19,O=C(NCC1(O)CCSCC1)c1cc2ccccc2[nH]1 [CBK305199],42.6714
20,Cc1ccc2c(Cl)c(-c3nnc(-c4ccc(Cl)cc4)o3)sc2c1 [CBK263682],109.03
21,CCc1ccc(-c2ccc(C(=O)OC)cn2)cc1 [CBK149232],132.108
22,COc1cc(CN2CCOC3(CCN(C(=O)OCc4ccccc4)CC3)C2)cc(OC)c1OC [CBK161104T],91.2396
23,O=C(Cn1nc2n(c1=O)CCCC2)NCc1ccccc1Cl [CBK304647],83.8668
24,CCOC(=O)c1cccc(NS(=O)(=O)c2cc(F)c(Br)cc2F)c1 [CBK034333],92.5296
25,O=C(C1CC1)N1C[C@@H](c2ccsc2)[C@@H]2CN(C3CCCC3)CC[C@@H]21 [CBK283382],82.3298
26,COC(=O)c1c(C)[nH]c(C(=O)CSc2ncnc3sc(C)c(-c4ccccc4)c23)c1C [CBK266004],84.142
27,CC1(C)CC(=O)C2=C(C1)Nc1[nH][nH]c(=O)c1C2c1ccccn1 (stereo not shown) [CBK288463],99.8387

row,Compound,% of control remaining
1,O=C(Cc1ccccc1)N(Cc1ccco1)C1CCN(c2ccc3c(c2)OCCO3)CC1 [CBK286529],84.5909
2,CC(C)NC(=O)NC1CCCc2nc(N3CCC(CO)CC3)ncc21 (stereo not shown) [CBK307002],103.838
3,O=C(Cn1ccc(=O)[nH]c1=O)NCc1ccc(OCC(F)(F)F)cc1 [CBK305041],49.6367
4,Cc1c(C#N)sc(-c2nc[nH]n2)c1C [CBK005952],73.4006
5,Cc1n[nH]c(C)c1CCC(=O)N/N=C\c1cccc(Oc2ccccc2)c1 [CBK263384],88.9308
6,CCC(=O)NCCc1cc2ccc(C)cc2[nH]c1=O [CBK287434],124.803
7,COCOc1ccc(-c2nccnc2OCCN2C(=O)c3ccccc3C2=O)cc1 [CBK106913],78.8397
8,CC(=O)c1ccc(NC(=O)[C@@]2(CC(=O)O)CC(c3ccc(F)cc3)=NO2)cc1 [CBK286663],60.7431
9,O=C(OCc1nnsc1Cl)c1ccc(C(=O)c2ccccc2)cc1 [CBK297897],109.706
10,CCCNC(=O)c1cc(C2CCCN(Cc3ccccc3)C2)no1 (stereo not shown) [CBK283388],102.091
11,O=C(O)c1ccc(CNCc2ccc(-c3ccc(F)cc3)o2)cc1 [CBK269622C],84.0152
12,Cc1ccc2[nH]c3c(c2c1)CCOC31CCN(Cc2ccccc2-c2ccccc2)CC1 [CBK039915],29.0118
13,COc1ccc(Br)cc1S(=O)(=O)Nc1nc(C)c(C(=O)O)s1 [CBK045558],62.2292
14,Cc1ccccc1-c1ccccc1CC1(C(=O)N(C)C)CCN(C(=O)CC(C)C)CC1 [CBK285714],107.916
15,Cc1ccc(S(=O)(=O)N(CC(=O)O)c2cccc(Cl)c2)cc1 [CBK262387],100.102
16,Clc1ccc(-c2noc(-c3ccco3)n2)cc1 [CBK026405],86.0819
17,Cc1ccc(C(=O)C2=C(O)C(=O)N(CCCn3ccnc3)C2c2cccc([N+](=O)[O-])c2)cc1 (stereo not shown) [CBK263319],55.3403
18,CC(=O)N(C)c1ncc(Br)cc1C(=O)NCc1nc2ccccc2[nH]1 [CBK076522],109.211
19,CC1(CNC(=O)C2CC(=O)N(C3CCCCC3)C2)COC1 (stereo not shown) [CBK281754],83.5631
20,COc1ccc(OC)c(NC(=O)CSc2nnc(-c3ccncc3)n2C)c1 [CBK266623],120.162
21,CN(C)CCCO/N=C1\CC2(CCCC2)c2ccccc21 [CBK013331],57.6164
22,Fc1ccc(Oc2nccnc2N2CCN(CC3CC3)CC2)cc1 [CBK083033T],90.4101
23,O=C(O)c1ccc(/C=N/N2CCN(Cc3ccc(Cl)cc3)CC2)cc1 [CBK263561],80.6122
24,COc1ccc(S(=O)(=O)Nc2cccc(C(=O)O)c2)cc1C(=O)O [CBK264069],101.024
25,CC(C)C(C(=O)Nc1ccc(S(=O)(=O)Nc2nccs2)cc1)N1C(=O)c2ccccc2C1=O (stereo not shown) [CBK265707],85.3665
26,CCOC(=O)Nc1ccc(S(=O)(=O)Nn2cnnc2)cc1 [CBK262138],98.2472
27,Cc1cc2nnn(C[C@@H](C)NC(=O)c3ccco3)c2cc1C [CBK282366],89.7925

row,Compound,% of control remaining
1,CC(=O)N(C)c1nc(-c2ccccc2)ccc1C(=O)Nc1ccc2c(c1)OCO2 [CBK106342],97.2633
2,O=C(Cc1c(Cl)cccc1Cl)Nc1ccc2[nH]ccc2c1 [CBK159664],100.411
3,CCN(CC)C(=O)CN1CCN(c2nccnc2OCc2ccc(Cl)c(Cl)c2)CC1 [CBK083081T],89.1647
4,CC(=O)c1ccc(-c2nccnc2NCc2cccc([N+](=O)[O-])c2)s1 [CBK037509],77.4505
5,Cc1cc(C(=O)NC(C)C2CC3CCC2C3)c2cnn(C(C)C)c2n1 (stereo not shown) [CBK281652],86.7233
6,CN1CCN(CC(=O)Nc2ccc(OCc3ccccc3)cc2)CC1 [CBK264844],98.0161
7,COc1cc(/C=N/Nc2nonc2N)cc(OC)c1OC [CBK025758],68.5443
8,COc1cc(CN2CCCC3(CCN(C(=O)c4cc(F)c(F)cc4F)C3)C2)cc(OC)c1OC (stereo not shown) [CBK131988],77.6609
9,CC(C)(C)OC(=O)N1CCC(N2CCc3cc(-c4ccc(S(C)(=O)=O)cc4)ccc3C2)CC1 [CBK165796],61.0961
10,CN(C)c1ccc(-c2nccnc2NS(=O)(=O)c2ccc(C(F)(F)F)cc2)cc1 [CBK050802],86.2696
11,CC(C)(C)n1cc(C(=O)N2CCNCC2c2cccc(Cl)c2)cn1 (stereo not shown) [CBK304112],56.0284
12,CSc1ccc([C@H]2[C@H](C(=O)O)CC(=O)N2Cc2ccccc2)cc1 [CBK286934],88.6354
13,CC(=O)c1ccc(-c2nccnc2N2CCN(c3ccncc3)CC2)s1 [CBK037015],108.659
14,CCCc1nn(Cc2ccccn2)c(=O)c2cc3ccsc3n12 [CBK284229],67.9532
15,CC[C@H]1C[N@@]2CC[C@H]1C[C@@H]2CNS(=O)(=O)c1cccc2cccnc12 [CBK288747],109.372
16,O=C(Nc1ccccc1Br)C1CCCC1 [CBK092059],61.9487
17,CSCCCNC(=O)c1ccc2nc[nH]c2c1 [CBK153314],72.0219
18,COCc1cc(-c2ccc(C(=O)N3CCN(C)CC3)nc2)ccc1OCC1CCN(C(=O)OC(C)(C)C)CC1 [CBK174511],62.1024
19,CCCc1cc(C(=O)Nc2nccs2)cs1 [CBK288212],64.9613
20,Cc1c(-c2ccc(Cl)cc2Cl)nc2ccccc2c1C(=O)NCCC(c1ccccc1)c1ccccc1 [CBK262634],104.513
21,Fc1ccc(-n2nnnc2SCc2ccc(Cl)cc2)cc1Cl [CBK102075],66.3834
22,COc1ccc(CCC(=O)Nc2cccc(-c3ccc(OC4CCNCC4)cc3)c2)cc1OC [CBK131925T],89.9226
23,O=C(c1ccc(NCCCCO)nc1)N1CCC(N2CCOCC2)CC1 [CBK306521],69.2504
24,O=C(NC(=S)Nc1ccc2[nH]c(=O)[nH]c2c1)c1ccc(F)cc1 [CBK263986],83.8017
25,C=CCC1(CC=C)CCN1C(=O)c1cc(-c2c(C)nn(C)c2C)n[nH]1 [CBK282575],108.962
